Our source for the ETS1 binding intensity values is the supplement of paper PMC10681739.

In all, about 2,700 sequences were measured (“arbitrary fluorescence units”: median about 4,100, highest 2% from about 54,000 on). Some of the results follow.

This experiment deals with T1, ETS1 (UniProt P14921).
T1 sequence: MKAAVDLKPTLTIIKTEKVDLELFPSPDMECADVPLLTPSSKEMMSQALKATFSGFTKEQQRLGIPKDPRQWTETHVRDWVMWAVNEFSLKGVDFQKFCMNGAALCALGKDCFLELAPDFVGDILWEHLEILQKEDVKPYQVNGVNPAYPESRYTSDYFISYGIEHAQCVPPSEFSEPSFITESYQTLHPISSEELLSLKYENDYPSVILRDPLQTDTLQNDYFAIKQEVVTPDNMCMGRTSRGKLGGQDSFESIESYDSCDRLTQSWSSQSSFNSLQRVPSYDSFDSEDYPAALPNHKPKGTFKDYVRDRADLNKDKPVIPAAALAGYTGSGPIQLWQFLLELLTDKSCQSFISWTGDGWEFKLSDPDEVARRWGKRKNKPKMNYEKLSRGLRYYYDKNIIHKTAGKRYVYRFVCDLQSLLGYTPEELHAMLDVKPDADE
Briefly: ETS1 binding intensity (PBM fluorescence) (arbitrary fluorescence units); higher = stronger binding. The settings on record: ETS1 concentration 10 nM. Here is the method: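 gcPBM on wild-type 36-bp genomic probes with two neighbouring ETS1 sites (4-24 bp apart). Recombinant human ETS1 (10 nM) was detected with anti-ETS1 antibody fluorescence. Values are medians over 3 replicate spots. The probes sit in constant array flanks that are not printed.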
AGTACTTCCCCCTTCACTCTCTCTCTCTTTCCTGCT came in with an ETS1 binding intensity of 4220.
In the case of TCACACAGGAAGACGGTCATGCTACAGGAAGACCTC it was 1630; in that of CCCTCGGTTCGGAAACGGCGAAAGGAAACCGCAAGG, 203.
Consider AGCACCCAGGAAGTGGTGAATACACTTCCTGCTTCT, for which the ETS1 binding intensity turned out to be 9490.
On to CCCCTGTCACACATCCTGTGGGAAGTCGGAGGCCTC, for which the ETS1 binding intensity is 10200.
To GATGGCTTCCTGCGCGACAGCAAGCACATCCTGGGG belongs 11200.
Consider AAAGGAGGATGTGAACAAAGGTCGAGGGAAATGACA, for which the ETS1 binding intensity is 406.
Sequence TGGGGTGCGGTTTCCTCAGGGGGAAGTTGAGGTCAC displayed an ETS1 binding intensity of 669.
In the case of AGAAGCTTACAGGAAGCAAACAGGAAAACGTGTGTC it was 2720.
To CAGATGTTTCCTGCTCACCTCCCGCATCCTGGTGAC belongs 11700.
Take TTAGCCGGATGTGCTTGCTTGAACCCGGAAGACGGA: the ETS1 binding intensity was 11700.
Consider GAAGGGCTGTTTCCCGGCTGGCAGGATGTTTGTGCA, for which the ETS1 binding intensity was 1590.
In the case of GCCACAGTACTTCCTGTTAGAACATCCTGTCTCCTG it was 44800.
Take GACTCGGTTCCGCGGAAATCGGAAATCGAAACTTAC: the ETS1 binding intensity was determined as 721.
Consider AGGGCTCCATCCGCAACGTAAGCAGGAAAAGATTCC, for which the ETS1 binding intensity was determined as 1240.
AGAGCCTGGGATGTGAAGATAAGCTTCCGTTTCTCA showed an ETS1 binding intensity of 411.
Sequence CTAACCCAACTACTTCCTTCTTCCTGTGCGGCTCAA yielded an ETS1 binding intensity of 6140.
TGAATTATCTGCCGGAAGAGGGAAATGTCAACAGAA: the ETS1 binding intensity was determined as 2000.
In the case of AGCAGGAAGCTGGCAGCCATGAATTCTGGGAAATGT it was 381; in that of TTAGAACGGAAATCACTAAAAAGTCAGGAAACAACA, 7350; in that of CGACGGGAAACGTCTCTGAATTAGGTGTTCCGCTCG, 294.
In the case of AGAGGAGGAAGCTGGGGTTGGAGACAGGAAGTGACT it was 3670.
ACACAGGAAATAAAGATTAAACAAAGAGGAAGTGAA had an ETS1 binding intensity of 5770.
Regarding GCTGGACAGGATATACGGAGTAAAAGGAAGTGCTGT, the ETS1 binding intensity came out at 5810.
The sequence TTTGCAGGAAGCAGATTATGAGGTAGCTTCCTATGG came in with an ETS1 binding intensity of 962.
In the case of GGCCGGGATGTGGCCGAGCTCTTCTACCGGAAGCTG it was 1610; in that of ATTTTATTACTTCCTCTCTTGACTTCCCAAAGAATT, 8140; in that of GGGTAAGGAAGTTGAGTTGGCCAACAGGAAGCAGGT, 1630.
The sequence AGTTTCGCTACATTTCCCAGGATGCTTTGCCAATAG registered an ETS1 binding intensity of 192.
For the sequence CTGGTTTAAAGGAAGTTGCTCTGTTCCGTTTTATTT, the ETS1 binding intensity stood at 1260.
To TCATGTTTCATCCTGTTGTTTTGCTTCCTTTAAAAG belongs 2640; to CACAGCGCTTCCGGGCGCCCAGGTTTCCGAGCCAGC, 23000.
To CGGGGGCCGTTTCCTGGGCTCCTTCCTGCAGGGCCT belongs 7210; to CCTGACACTCAGGAAGGCTGCAGGAAGTGCCTGAGG, 912.
Regarding GAGCCCGGCGGATGCTGACGTCATTTCCGCCACGAG, the ETS1 binding intensity was 5390.
CGTTCCCGTTTCCGCCAGCCACCGGAACTGCGGCCC came in with an ETS1 binding intensity of 17500.
In turn, CAGCAGGAAGCGGTGTACAGGCTTTGCCGGAAGAGA displayed an ETS1 binding intensity of 2380.
In the case of AGCTTTCCTGTCGTCATTGTACCGCCATTTCCTGAG it was 7750; in that of GGCGCGCGTGGCAGGAAGCGGAAGCGATCCGAGGCC, 5510; in that of CTTGCGCTCCACTTCCTTCACATCCTCCTCCGCCTC, 3970.
On to AACGCCACTGGCTTCCCGGCCTTCCGTCCGCTGCCT, for which the ETS1 binding intensity was 421.
To CCGAAGATCGCACTTCCGCTTCCGGGGCATAGCACC belongs 24800.
GTCACACAGGAAGTGGCAATGGCAGGATGTACCCTT came in with an ETS1 binding intensity of 14800.
To GGAACAGCAGGATGTGAGTAACAGGAAGTGACAGAA belongs 8830.
For the sequence GCGTGGCATCTTCCGCACCCACTTCCTGCTCTTTCT, the ETS1 binding intensity was found to be 9080.
Consider GCTCCGTGGAGGAGGAAACATCCTGCTTGTTTTTCA, for which the ETS1 binding intensity stood at 3420.
As for ACCATCTCATTTCCCCTTACAACTTCCTGAGGTGCA, the ETS1 binding intensity is 4670.
For GCCCGAGCCGCTTCCGGGTACTTCCGGCGGCCGCGG, the ETS1 binding intensity is 39600.
To GGGCGGAAAGCAGGAAGTCGATCCCGCGGGCGCGGC belongs 11200.
Take TAGACGGACAGGAAACAGCAGAGGAAATGGCTGCTG: the ETS1 binding intensity came out at 4870.
To ACATAAAGGAAGTGGCATCTGAGAGCTTCCGGCACG belongs 7130; to ACACACAGGAAGCTAATAACTAGACAGGAATGCTGA, 4960.
In the case of GGCAACGAGGAAGCGGGGCCCGCCGGAAAAGGCGGG it was 474; in that of AGAGAGGAAGCTGAGAAAGCAGCTCCAGGAAGTGGC, 648; in that of GTAACAGGAAGAAAATAATTTACCACATCCTTTATT, 975.
To CCGAAGGAAGCAGCTGATTGAGTTCTCATCCTGCCT belongs 188.
The sequence GCACCAGGAAGTCCCCTTGCCTAGGTTTCCTCTCCT yielded an ETS1 binding intensity of 2030.
Turning to AGCCTTTGTATTTCCTTTCAGAGGAAACCCCAATGC, the ETS1 binding intensity amounted to 5570.
ACAGCTTCCGGCGTGCTCCGCAACAGCTTCCGGCGT came in with an ETS1 binding intensity of 50500.
ATTCACCCCAGGAAAGACAAGCGGAAGAACCACTCA: the ETS1 binding intensity came out at 261.
The sequence TGTGGCTTCCTGTGTCTGGTGCCATCAGGAAGTAGC showed an ETS1 binding intensity of 27900.
To AAGTCAGGAAACAACAGATGCTGCAGAGGATGTGGA belongs 370.
Consider ACCGCTCAAGACCGGAAGCGGAAATGGAATCGAGAT, for which the ETS1 binding intensity was 24100.
Take GAGCGGAAGTGGAAAAGACTAACTTCCGGCCTCGGG: the ETS1 binding intensity turned out to be 30600.
In the case of CGAGACTTCCTCTTTGACTCAACCACTTCCTATAAG, the ETS1 binding intensity was 20600.
In turn, AAACAAAACCCACAGGAAGGAAGCCAGCGAAGGAGA registered an ETS1 binding intensity of 382.
To GAAAGCCGGAAAGGTTTTACGCAACAGGAACTCAAG belongs 757; to CGAGGCTCGTTCCGGTAGCGGGAGGAAGACTGGAGG, 1690; to TGGGCCTCCAGGAAGCCTGGGGAGGATGTAGGCAGA, 288.
In the case of CTGCCTGGAGGAAGTTACACTCCATCCGCATGAGTG it was 834; in that of GGTTTCCTCTTACTGGAATTTCCTCCCGCCCTCCCT, 6510; in that of TCATTGTGTGCTTCCTCTTTCAGGAAGGGCTGCCTT, 2740.
In the case of ACATTCAGGCATTTCCTTACATCCTCTGAAATCTGG it was 2070; in that of CCCAAGGAAATCTGCCTCCAATAAACCAGGAAATGT, 181; in that of GGCAGCCATCCGCAGGGTCAGCGCCATCCTGTGCAG, 392.
Consider GCCTAGGAAGTGACTTAAAAGGCTGTCAGGAAACGC, for which the ETS1 binding intensity was determined as 1420.
In the case of AAATTGCTTCCTGAACTGACCCTGCCGGAAACCCGT it was 5210; in that of CCAGCTCATTTCCTGCCATTGCCCTTCCTGCACCCT, 29600.
GTGCTGCGCTGTTCCGGGCCCGGATGGTTACCGTCC registered an ETS1 binding intensity of 325.
GTTCCCTGTATTTCCTGTAGATTTCCTGCATACCTT yielded an ETS1 binding intensity of 13800.
